These are yes or no findings as the source states them, for the method shown. Some binding calls cover weakened binding; strength is not graded here. One block for each binder: values may come before it.
How the values were obtained:
[1] = biological target: T1, near full-length RECK (RF: residues 27-942) (mouse) (UniProt Q9Z0J1); test: two-hybrid; RF (pGBKT7) as bait, AF or Ad1-6 (pGADT7) as prey; stringent setting of Fig. 1B, growth on SD (-LTAH) plates with 3AT
T1 sequence: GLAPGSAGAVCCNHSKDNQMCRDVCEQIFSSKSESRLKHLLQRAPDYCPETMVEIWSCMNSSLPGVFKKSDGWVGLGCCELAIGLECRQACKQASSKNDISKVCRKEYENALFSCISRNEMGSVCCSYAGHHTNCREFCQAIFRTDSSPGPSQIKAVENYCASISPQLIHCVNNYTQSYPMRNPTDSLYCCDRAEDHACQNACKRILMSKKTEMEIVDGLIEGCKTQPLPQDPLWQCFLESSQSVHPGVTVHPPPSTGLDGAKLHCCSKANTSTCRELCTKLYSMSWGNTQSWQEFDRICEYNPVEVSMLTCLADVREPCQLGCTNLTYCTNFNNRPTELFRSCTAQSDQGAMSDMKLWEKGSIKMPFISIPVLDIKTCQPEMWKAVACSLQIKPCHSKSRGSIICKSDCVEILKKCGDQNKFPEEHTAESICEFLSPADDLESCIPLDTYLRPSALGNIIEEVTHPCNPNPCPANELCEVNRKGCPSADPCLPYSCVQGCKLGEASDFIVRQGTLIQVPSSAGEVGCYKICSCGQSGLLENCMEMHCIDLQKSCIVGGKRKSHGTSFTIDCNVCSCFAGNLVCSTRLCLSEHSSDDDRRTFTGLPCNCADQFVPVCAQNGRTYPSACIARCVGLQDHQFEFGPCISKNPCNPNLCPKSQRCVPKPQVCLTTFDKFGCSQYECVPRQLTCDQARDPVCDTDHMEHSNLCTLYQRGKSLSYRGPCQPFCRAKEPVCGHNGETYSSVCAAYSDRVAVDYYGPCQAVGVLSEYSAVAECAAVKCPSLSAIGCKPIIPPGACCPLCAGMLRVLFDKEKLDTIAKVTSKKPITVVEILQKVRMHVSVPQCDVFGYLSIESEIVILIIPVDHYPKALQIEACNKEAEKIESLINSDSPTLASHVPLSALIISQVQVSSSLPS

[2] = biological target: T2, near full-length ADAMTS10 (AF: residues 25-1104) (mouse) (UniProt P58459); test: two-hybrid; AF (pGBKT7) as bait, RF or Rd1-9 (pGADT7) as prey; stringent conditions: LTAH (-) + 10 mM 3AT; growth after 4 days
T2 sequence: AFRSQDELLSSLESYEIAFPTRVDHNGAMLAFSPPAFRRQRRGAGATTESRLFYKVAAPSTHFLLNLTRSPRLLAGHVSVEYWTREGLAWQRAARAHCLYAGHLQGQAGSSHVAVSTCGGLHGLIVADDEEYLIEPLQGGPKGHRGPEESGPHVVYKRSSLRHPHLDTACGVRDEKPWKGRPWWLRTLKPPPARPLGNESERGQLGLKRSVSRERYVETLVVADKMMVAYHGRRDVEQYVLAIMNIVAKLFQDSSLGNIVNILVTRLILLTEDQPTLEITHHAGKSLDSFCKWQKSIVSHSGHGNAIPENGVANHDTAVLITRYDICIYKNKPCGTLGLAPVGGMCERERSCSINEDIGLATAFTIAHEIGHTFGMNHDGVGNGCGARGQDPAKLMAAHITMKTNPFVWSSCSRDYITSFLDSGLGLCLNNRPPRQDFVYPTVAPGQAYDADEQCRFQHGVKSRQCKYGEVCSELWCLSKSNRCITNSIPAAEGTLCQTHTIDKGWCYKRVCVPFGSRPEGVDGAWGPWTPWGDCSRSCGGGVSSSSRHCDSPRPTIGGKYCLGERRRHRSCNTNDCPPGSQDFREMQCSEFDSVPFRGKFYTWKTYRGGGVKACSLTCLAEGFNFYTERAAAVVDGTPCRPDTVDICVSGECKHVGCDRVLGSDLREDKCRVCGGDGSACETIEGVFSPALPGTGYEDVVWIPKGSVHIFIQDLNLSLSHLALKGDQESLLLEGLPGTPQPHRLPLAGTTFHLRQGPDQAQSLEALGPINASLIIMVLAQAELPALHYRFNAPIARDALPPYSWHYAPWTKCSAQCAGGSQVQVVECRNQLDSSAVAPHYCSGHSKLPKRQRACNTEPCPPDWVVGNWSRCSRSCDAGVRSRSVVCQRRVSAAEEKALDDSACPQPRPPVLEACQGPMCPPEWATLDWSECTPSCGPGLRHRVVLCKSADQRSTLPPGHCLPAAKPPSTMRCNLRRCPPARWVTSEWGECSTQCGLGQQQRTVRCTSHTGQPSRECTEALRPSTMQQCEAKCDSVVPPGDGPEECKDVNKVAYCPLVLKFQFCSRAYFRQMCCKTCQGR

[3] = biological target: T3, ADAMTS10 fragment Ad4 (residues 823-1104) (mouse) (UniProt P58459); test: two-hybrid; reduced stringency (condition III: LTAH (-) medium with 2 mM 3AT), 30 C, 7 days; bait RF or Ad4, prey AF, Ad4, RF or Rd7
T3 sequence: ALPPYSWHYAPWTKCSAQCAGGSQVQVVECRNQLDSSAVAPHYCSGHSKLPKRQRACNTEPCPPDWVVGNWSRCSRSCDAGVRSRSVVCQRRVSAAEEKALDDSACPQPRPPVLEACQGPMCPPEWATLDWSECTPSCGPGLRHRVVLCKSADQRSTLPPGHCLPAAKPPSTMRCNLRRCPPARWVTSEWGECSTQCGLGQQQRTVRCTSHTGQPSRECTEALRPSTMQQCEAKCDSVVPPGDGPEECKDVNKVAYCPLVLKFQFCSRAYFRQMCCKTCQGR

[4] = biological target: T1, near full-length RECK (RF: residues 27-942) (mouse); test: as above
[5] = biological target: T1, near full-length RECK (RF: residues 27-942) (mouse); test: condition: only stringent selection of Fig. 1A and B; two-hybrid; RF (pGBKT7) as bait, AF or Ad1-6 (pGADT7) as prey; stringent setting of Fig. 1B, growth on SD (-LTAH) plates with 3AT
[6] = biological target: T2, near full-length ADAMTS10 (AF: residues 25-1104) (mouse); test: condition: only stringent selection, LTAH (-) + 10 mM 3AT; two-hybrid; AF (pGBKT7) as bait, RF or Rd1-9 (pGADT7) as prey; stringent conditions: LTAH (-) + 10 mM 3AT; growth after 4 days

B2: ADAMTS10 fragment Ad3 (residues 691-1104) (domain or fragment, UniProt P58459 691-1104)
chain: REDKCRVCGGDGSACETIEGVFSPALPGTGYEDVVWIPKGSVHIFIQDLNLSLSHLALKGDQESLLLEGLPGTPQPHRLPLAGTTFHLRQGPDQAQSLEALGPINASLIIMVLAQAELPALHYRFNAPIARDALPPYSWHYAPWTKCSAQCAGGSQVQVVECRNQLDSSAVAPHYCSGHSKLPKRQRACNTEPCPPDWVVGNWSRCSRSCDAGVRSRSVVCQRRVSAAEEKALDDSACPQPRPPVLEACQGPMCPPEWATLDWSECTPSCGPGLRHRVVLCKSADQRSTLPPGHCLPAAKPPSTMRCNLRRCPPARWVTSEWGECSTQCGLGQQQRTVRCTSHTGQPSRECTEALRPSTMQQCEAKCDSVVPPGDGPEECKDVNKVAYCPLVLKFQFCSRAYFRQMCCKTCQGR
binding [1]: binds

B3: RECK fragment Rd7 (residues 349-629) (domain or fragment, UniProt Q9Z0J1 349-629)
chain: GCTNLTYCTNFNNRPTELFRSCTAQSDQGAMSDMKLWEKGSIKMPFISIPVLDIKTCQPEMWKAVACSLQIKPCHSKSRGSIICKSDCVEILKKCGDQNKFPEEHTAESICEFLSPADDLESCIPLDTYLRPSALGNIIEEVTHPCNPNPCPANELCEVNRKGCPSADPCLPYSCVQGCKLGEASDFIVRQGTLIQVPSSAGEVGCYKICSCGQSGLLENCMEMHCIDLQKSCIVGGKRKSHGTSFTIDCNVCSCFAGNLVCSTRLCLSEHSSDDDRRTFT
binding [2]: binds
binding [3]: binds

B4: near full-length ADAMTS10 (AF: residues 25-1104) (domain or fragment, UniProt P58459 25-1104)
chain: T2 sequence
binding [4]: binds
binding [5]: no binding

Now from value to binder:

binding [1]: binds
B1: ADAMTS10 fragment Ad4 (residues 823-1104) (domain or fragment, UniProt P58459 823-1104)
chain: T3 sequence

binding [6]: no binding
B5: near full-length RECK (RF: residues 27-942) (domain or fragment, UniProt Q9Z0J1 27-942)
chain: T1 sequence

From PMC6215420
